In US20250230231A1 (FYB202 PROJECT, published 2025):

T1: recombinant human IL-12 (human, UniProt P29459 23-219; P29460 23-328)
T1 construct: Recombinant protein used as analyte in BLI and as stimulus in the NK-92 assay (there the species of IL-12 is not restated)
T1 sequence (looked up) 1: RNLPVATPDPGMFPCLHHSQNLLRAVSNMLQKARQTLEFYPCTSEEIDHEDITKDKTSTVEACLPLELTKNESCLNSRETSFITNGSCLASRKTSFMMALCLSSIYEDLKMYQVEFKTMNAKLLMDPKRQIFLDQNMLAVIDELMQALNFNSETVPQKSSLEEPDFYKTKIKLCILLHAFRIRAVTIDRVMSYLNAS
T1 sequence (looked up) 2: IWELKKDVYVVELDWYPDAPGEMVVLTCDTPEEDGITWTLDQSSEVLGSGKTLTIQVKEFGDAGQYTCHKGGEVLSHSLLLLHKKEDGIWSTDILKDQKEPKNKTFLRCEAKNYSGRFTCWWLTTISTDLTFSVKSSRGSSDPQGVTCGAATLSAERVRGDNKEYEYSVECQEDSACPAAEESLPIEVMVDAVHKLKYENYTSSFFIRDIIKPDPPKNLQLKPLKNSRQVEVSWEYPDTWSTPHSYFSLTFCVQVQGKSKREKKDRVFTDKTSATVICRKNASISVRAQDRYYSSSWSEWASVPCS

T2: recombinant human IL-23 (human, UniProt Q9NPF7 20-189; P29460 23-328)
T2 construct: Recombinant protein coated on the ELISA plate
T2 sequence (looked up) 1: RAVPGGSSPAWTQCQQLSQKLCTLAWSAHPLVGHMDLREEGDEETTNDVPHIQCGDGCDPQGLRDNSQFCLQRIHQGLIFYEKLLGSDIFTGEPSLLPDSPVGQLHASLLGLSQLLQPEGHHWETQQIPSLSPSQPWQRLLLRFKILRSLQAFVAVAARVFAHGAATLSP
T2 sequence (looked up) 2: T1 sequence (looked up) 2

B1: ustekinumab antibody produced in CHO-K1 cells, parental clone cl563-7, subclone 54 (antibody, human IgG1, kappa)
heavy: EVQLVQSGAEVKKPGESLKISCKGSGYSFTTYWLGWVRQMPGKGLDWIGIMSPVDSDIRYSPSFQGQVTMSVDKSITTAYLQWNSLKASDTAMYYCARRRPGQGYFDFWGQGTLVTVSS[sequence of human IgG1 constant region not given]
light: [sequence of about 200 residues not given]
modifications: glycosylated on the asparagine residue 299 of the Fc region; 69.6% of molecules (CEX main peak K0) without C-terminal lysine
notes: Fully human IgG1 kappa; differs in glycosylation and C-terminal lysine content; also called CHO-produced ustekinumab
B2: ustekinumab antibody produced in CHO-K1 cells, parental clone cl563-24, subclone 103 (antibody, human IgG1, kappa)
heavy: B1 heavy
light: [sequence of about 200 residues not given]
modifications: glycosylated on the asparagine residue 299 of the Fc region; 63.0% of molecules (CEX main peak K0) without C-terminal lysine
notes: Fully human IgG1 kappa; differs in glycosylation and C-terminal lysine content; also called 563-24#103; Clone number c1563-24, subclone 103
B3: ustekinumab reference product (Stelara), produced in Sp2/0 murine myeloma cells (antibody, human IgG1, kappa)
heavy: B1 heavy
light: [sequence of about 200 residues not given]
modifications: glycosylated on the asparagine residue 299 of the Fc region; 36.0% of molecules (CEX main peak K0, mean of 12 samples) without C-terminal lysine
notes: Fully human IgG1 kappa, marketed product; highly sialylated (mostly NGNA)
B4: ustekinumab antibody produced in CHO-K1 cells, parental clone cl485-11, subclone 8 (antibody, human IgG1, kappa)
heavy: B1 heavy
light: [sequence of about 200 residues not given]
modifications: glycosylated on the asparagine residue 299 of the Fc region; 68.6% of molecules (CEX main peak K0) without C-terminal lysine
notes: Fully human IgG1 kappa; differs in glycosylation (low sialic acid, more G0F) and C-terminal lysine content; Purified by protein A from the supernatant of the clone; also called 485-11#8; clone 485-11 #8

What follows are binders tested against T1, recombinant human IL-12 (assay: BLI (Octet RED96), antibody captured on AHC biosensor, IL-12 in solution, 1:1 model).

Kd [nM]	Binder
0.208	B1
0.19	B2
0.206	B3

The binders below were run against T2, recombinant human IL-23 (assay: ELISA, IL-23 coated, serially diluted antibody, relative to reference (PLA2.1)).

relative potency [U/mg]	Binder
1.02	B4
1.02	B1
0.95	B2

Each binder was assayed against T1, recombinant human IL-12 (assay: cell-based or functional assay).

NK-Assay RP [U/mg] (inhibition of IL-12 induced IFN-gamma production in NK-92 cells, relative potency)	Binder
1.1	B4
1.09	B1
0.98	B2
1	B3
